Laboratory results reported in the supplement of paper PMC12217912.
Some of the results follow. The full chains were built here from the parent and the listed change. Values near 0.05 are background.

B1: TEV protease; numbered along this chain (parent)
chain: MGESLFKGPRDYNPISSSICHLTNESDGHTTSLYGIGFGPFIITNKHLFRRNNGTLVVQSLHGVFKVKDTTTLQQHLVDGRDMIIIRMPKDFPPFPQKLKFREPQREERICLVTTNFQTKSMSSMVSDTSCTFPSGDGIFWKHWIQTKDGQCGSPLVSTRDGFIVGIHSASNFTNTNNYFTSVPKNFMELLTNQEAQQWVSGWRLNADSVLWGGHKVFMVKPEEPFQPVKEATQL

Variants of: B1
Experiment: raw area under fraction-flipped curve 0-4 h after induction (AUC4h, not background-subtracted), DNA-recorder readout of cleavage of the substrate (dimensionless); higher = more cleavage of the substrate by the protease variant
Conditions: temperature: 34 °C; time window: 0-4 h after rhamnose induction
Description: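 In vivo DNA recorder in E. coli TOP10(DE3) ΔrhaA at 34 °C. Each TEVp single-site mutant (parent TEVp 0) is paired with a single-site variant of the 7-mer TEVs (canonical ENLYFQ|S). The substrate sits between flexible linkers in a Bxb1-sfGFP-TEVs-SsrA fusion, so cleavage stabilises Bxb1 and speeds flipping of a recombination array, read by NGS. The value is the raw area under the fraction-flipped curve over 0-4 h after rhamnose induction (AUC4h), with ≥20 reads per time point. It is not background-subtracted; inactive controls average about 0.047.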
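Also: Bxb1 expression induced with 0.2% (w/v) L-rhamnose at OD600 near 0.5, cultures sampled hourly, flipped fraction per protease–substrate barcode pair counted by paired-end Illumina sequencing.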

S16P
area with substrate DNLYFQS: 0.0777
area with substrate FNLYFQS: 0.0667
area with substrate GNLYFQS: 0.115
area with substrate HNLYFQS: 0.0596
area with substrate INLYFQS: 0.0608
area with substrate KNLYFQS: 0.0643
area with substrate MNLYFQS: 0.0453
area with substrate PNLYFQS: 0.0594
area with substrate RNLYFQS: 0.0564
area with substrate VNLYFQS: 0.0712
area with substrate WNLYFQS: 0.063
area with substrate YNLYFQS: 0.0557

S4F
area with substrate DNLYFQS: 0.0967
area with substrate FNLYFQS: 0.0716
area with substrate KNLYFQS: 0.0924
area with substrate LNLYFQS: 0.0687
area with substrate MNLYFQS: 0.0742
area with substrate PNLYFQS: 0.0639
area with substrate RNLYFQS: 0.0731
area with substrate TNLYFQS: 0.0779
area with substrate VNLYFQS: 0.0702
area with substrate WNLYFQS: 0.0666
area with substrate YNLYFQS: 0.0623

S135Q
area with substrate DNLYFQS: 0.062
area with substrate FNLYFQS: 0.0575
area with substrate HNLYFQS: 0.0521
area with substrate INLYFQS: 0.0547
area with substrate KNLYFQS: 0.0423
area with substrate LNLYFQS: 0.0655
area with substrate MNLYFQS: 0.0537
area with substrate NNLYFQS: 0.0695
area with substrate PNLYFQS: 0.0584
area with substrate SNLYFQS: 0.0706
area with substrate TNLYFQS: 0.05
area with substrate WNLYFQS: 0.0579
area with substrate YNLYFQS: 0.0575

G138D
area with substrate DNLYFQS: 0.0884
area with substrate KNLYFQS: 0.0601
area with substrate LNLYFQS: 0.061
area with substrate MNLYFQS: 0.0767
area with substrate PNLYFQS: 0.0642
area with substrate QNLYFQS: 0.0658
area with substrate TNLYFQS: 0.0748

T129Y
area with substrate DNLYFQS: 0.0715
area with substrate INLYFQS: 0.0596
area with substrate LNLYFQS: 0.0583
area with substrate TNLYFQS: 0.0551
area with substrate WNLYFQS: 0.0445

I164R
area with substrate DNLYFQS: 0.0605
area with substrate FNLYFQS: 0.0516
area with substrate GNLYFQS: 0.0529
area with substrate HNLYFQS: 0.0519
area with substrate INLYFQS: 0.06
area with substrate KNLYFQS: 0.0604
area with substrate MNLYFQS: 0.0494
area with substrate NNLYFQS: 0.0429
area with substrate PNLYFQS: 0.056
area with substrate TNLYFQS: 0.0545
area with substrate WNLYFQS: 0.056
area with substrate YNLYFQS: 0.0485

S182Q
area with substrate DNLYFQS: 0.0535
area with substrate GNLYFQS: 0.0518
area with substrate HNLYFQS: 0.0452
area with substrate LNLYFQS: 0.0604
area with substrate MNLYFQS: 0.0133
area with substrate NNLYFQS: 0.0522
area with substrate PNLYFQS: 0.0701
area with substrate TNLYFQS: 0.0566
area with substrate VNLYFQS: 0.0571
area with substrate WNLYFQS: 0.0572
area with substrate YNLYFQS: 0.0453

L22F
area with substrate DNLYFQS: 0.0652
area with substrate GNLYFQS: 0.0673
area with substrate HNLYFQS: 0.0571
area with substrate LNLYFQS: 0.0629
area with substrate MNLYFQS: 0.0716
area with substrate NNLYFQS: 0.053
area with substrate PNLYFQS: 0.0491
area with substrate RNLYFQS: 0.0893
area with substrate TNLYFQS: 0.0618
area with substrate VNLYFQS: 0.0595
area with substrate WNLYFQS: 0.0568
area with substrate YNLYFQS: 0.0554

M122S
area with substrate DNLYFQS: 0.0969
area with substrate GNLYFQS: 0.0715
area with substrate HNLYFQS: 0.0683
area with substrate KNLYFQS: 0.0637
area with substrate LNLYFQS: 0.0643
area with substrate NNLYFQS: 0.0699
area with substrate PNLYFQS: 0.0588
area with substrate TNLYFQS: 0.0704
area with substrate WNLYFQS: 0.0628
area with substrate YNLYFQS: 0.0401

S158W
area with substrate DNLYFQS: 0.0592
area with substrate FNLYFQS: 0.0449
area with substrate HNLYFQS: 0.0637
area with substrate INLYFQS: 0.0474
area with substrate KNLYFQS: 0.0528
area with substrate LNLYFQS: 0.056
area with substrate MNLYFQS: 0.0565
area with substrate NNLYFQS: 0.0305
area with substrate PNLYFQS: 0.0457
area with substrate SNLYFQS: 0.0428
area with substrate TNLYFQS: 0.0392
area with substrate VNLYFQS: 0.0536
area with substrate WNLYFQS: 0.0455
area with substrate YNLYFQS: 0.0271

V57D
area with substrate DNLYFQS: 0.0613
area with substrate FNLYFQS: 0.0442
area with substrate GNLYFQS: 0.0608
area with substrate HNLYFQS: 0.0688
area with substrate INLYFQS: 0.0647
area with substrate KNLYFQS: 0.0605
area with substrate LNLYFQS: 0.0462
area with substrate MNLYFQS: 0.0408
area with substrate PNLYFQS: 0.0704
area with substrate SNLYFQS: 0.0661
area with substrate TNLYFQS: 0.0614
area with substrate WNLYFQS: 0.0542
area with substrate YNLYFQS: 0.0581

G80F
area with substrate DNLYFQS: 0.0881
area with substrate NNLYFQS: 0.0536
area with substrate PNLYFQS: 0.0783
area with substrate QNLYFQS: 0.0759
area with substrate TNLYFQS: 0.0713
area with substrate VNLYFQS: 0.0667
area with substrate WNLYFQS: 0.0646

S123F
area with substrate DNLYFQS: 0.0824
area with substrate FNLYFQS: 0.0625
area with substrate GNLYFQS: 0.0732
area with substrate HNLYFQS: 0.0619
area with substrate KNLYFQS: 0.0738
area with substrate LNLYFQS: 0.0661
area with substrate MNLYFQS: 0.0664
area with substrate NNLYFQS: 0.0673
area with substrate PNLYFQS: 0.054
area with substrate SNLYFQS: 0.0604
area with substrate TNLYFQS: 0.0616
area with substrate WNLYFQS: 0.0676
area with substrate YNLYFQS: 0.0665

Q194K
area with substrate DNLYFQS: 0.0699
area with substrate FNLYFQS: 0.0382
area with substrate HNLYFQS: 0.0704
area with substrate KNLYFQS: 0.0616
area with substrate LNLYFQS: 0.0678
area with substrate MNLYFQS: 0.0689
area with substrate NNLYFQS: 0.065
area with substrate PNLYFQS: 0.0721
area with substrate QNLYFQS: 0.0758
area with substrate RNLYFQS: 0.0648
area with substrate SNLYFQS: 0.0734
area with substrate TNLYFQS: 0.0737
area with substrate WNLYFQS: 0.0611
area with substrate YNLYFQS: 0.0613

V229P
area with substrate DNLYFQS: 0.104
area with substrate FNLYFQS: 0.0634
area with substrate HNLYFQS: 0.0577
area with substrate INLYFQS: 0.0738
area with substrate KNLYFQS: 0.0676
area with substrate LNLYFQS: 0.0701
area with substrate MNLYFQS: 0.0568
area with substrate PNLYFQS: 0.0645
area with substrate SNLYFQS: 0.0698
area with substrate TNLYFQS: 0.0658
area with substrate WNLYFQS: 0.0636
area with substrate YNLYFQS: 0.0804
